Laboratory results as given in PubChem BioAssay AID686970 (National Center for Advancing Translational Sciences (NCATS), 2013).
The campaign covered roughly 360,000 compounds. About 6,000 (1.7%) were called active. This list was built around the results that the source calls inconclusive (neither active nor inactive); the mix of calls is not that of the screen. Calls come from the whole dose curve; as a rule, active = well fitted cell-killing curve with a large enough effect; inconclusive = small, poorly fitted or top-dose-only effect, or effect the other way; inactive = flat fitted curve, though single readings scatter. No potency is given beside an inconclusive call; the fits are too rough.
Potency is the fitted concentration of half-maximal effect; tags give direction and shape of the fitted curve.

Test: qHTS for induction of synthetic lethality in tumor cells producing 2HG: qHTS for the HT-1080-NT fibrosarcoma cell line;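 note: NT is the 2HG producing partner of a matched IDH1 knockdown line; nearly all actives have a fitted effect of over 55% in size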;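 for activity, negative = less viability: 0% = DMSO-treated cells and -100% = media-only wells without cells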
Conditions: HT-1080-NT fibrosarcoma viability, CellTiter-Glo ATP luminescence, 48 h; activity, negative = less viability: at 46.1 µM (top of the series) unless noted
Procedure, shortened: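 750 cells/well, RPMI + 5% FBS; 2 h settle, compound pin-transfer, 48 h at 37 degrees C. CellTiter-Glo 10 min RT, luminescence. Normalized to DMSO and media-only wells.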
With `CCOc1ccc(Nc2ncnc3c2cnn3Cc2ccccc2)cc1` the Potency was inconclusive [cytotoxic, single point].
With `Cn1c(S(=O)(=O)c2ccc([N+](=O)[O-])cc2)nc(Br)c1Br` the Potency was inconclusive [cytotoxic, single point].
In the case of `COC(=O)c1c(NC(=O)CN2CCN(Cc3ccc4c(c3)OCO4)CC2)sc(C)c1C`, the Potency is reported as inconclusive [cytotoxic, single point].
For `Cc1ccc(S(=O)(=O)Nc2ccc3c(c2)CC(=O)N([C@H](C)CO)C[C@@H](C)[C@H](CN(C)Cc2ccc(-c4ccccc4)cc2)O3)cc1`, the Potency was inconclusive [cytotoxic, single point].
With `Cc1ccc(/C=C/C(=O)Nn2cnnc2)cc1` the Potency was inconclusive [cytotoxic, single point].
In the case of `Cc1cc(C(=O)NC2CCCN(Cc3ccccc3F)C2)n[nH]1` (centres undefined), the activity, negative = less viability is reported as inconclusive: 32.4%.
In the case of `O=C(c1ccc(Cl)cc1[N+](=O)[O-])N1CCOCC1`, the “activity, negative = less viability” value is reported as inactive: 7.74%.
In the case of `CCOc1ccc2nc(SC3CC(=O)N(c4ccc(OC)cc4)C3=O)sc2c1` (centres undefined), the Potency is reported as inconclusive [cytotoxic, single point].
With `Nc1nc2sc3c(c2c(=O)s1)CCCC3` the Potency was inconclusive [cytotoxic, single point].
For `Cc1nccn1CCC(=O)NC1CCCc2c1cnn2-c1ccc(C(C)(C)C)cc1` (centres undefined), the Potency was inconclusive [cytotoxic, single point].
For `O=C(N/C(=C\c1cccc(Br)c1)C(=O)N1CCOCC1)c1ccco1`, the “activity, negative = less viability” value was inactive: 18.3%.
In the case of `COc1cc(OC)cc(C(=O)Oc2c(CN3CCOCC3)cc(Cl)c3cccnc23)c1`, the Potency is reported as inconclusive [cytotoxic, single point].
In the case of `O=[N+]([O-])c1cc(Cl)cc2c1nc(NCCO)c1ccccc12`, the Potency is reported as inconclusive [cytotoxic, partial curve].
For `COc1cc(/C=C2\CCc3c2nc2ccccc2c3C(=O)O)cc(OC)c1OC`, the Potency was inconclusive [cytotoxic, single point].
In the case of `CCc1cc(Cn2nc(-c3ccccc3)cc2C(=O)NCc2ccc(C)cc2)on1`, the “activity, negative = less viability” value is reported as inactive: 0.952%.
In the case of `O=C(Nc1ccc(F)cc1)N1CCC(c2nc3c(nnn3Cc3cccc(Cl)c3)c(=O)[nH]2)CC1`, the Potency is reported as inconclusive [cytotoxic, single point].
For `O=C(C=Cc1ccccc1)c1ccc([N+](=O)[O-])cc1`, the Potency was inconclusive [cytotoxic, single point].
With `CCOc1ccc(C(=O)C(C)OC(=O)CN2C(=O)NC(C)(C)C2=O)cc1` (centres undefined) the “activity, negative = less viability” value was inactive: 3.38%.
With `CCOc1cc(/C=C2\COc3ccccc3C2=O)cc(Br)c1OCC(=O)N(C)C` the Potency was active: 18.4 µM.
With `CCOc1cc(/C=N/NC(=O)c2ccccc2-n2cccc2)ccc1O` the Potency was inconclusive [cytotoxic, single point].
With `COc1cccc(-c2cnc3c(NC=O)cc(-c4ccc(S(C)(=O)=O)cc4)cn23)c1` the Potency was inconclusive [cytotoxic, single point].
In the case of `c1ccc(-c2noc(-c3ccc4c(c3)OCO4)n2)nc1`, the Potency is reported as active: 1.78 µM.
In the case of `CC(=O)Nc1ccc(C(=O)CCl)cc1`, the Potency is reported as inconclusive [cytotoxic, single point].
In the case of `COC(=O)[C@@]1(Cc2ccc(OC)cc2)[C@H]2c3cc(C(=O)N4CCCC4)n(Cc4ccc(C)c(F)c4F)c3C[C@H]2CN1C(=O)c1ccccc1`, the Potency is reported as inconclusive [cytotoxic, single point].
With `CCS(=O)(=O)c1ncc(Cl)c(C(=O)Nc2ccc(C)cc2)n1` the Potency was active: 18.4 µM.
For `CC(C)(C)OC(=O)NCCCCCNC(=O)c1[nH]cnc1C(=O)Nc1ccc(Cl)cc1`, the Potency was inconclusive [cytotoxic, single point].
For `COC(=O)[C@]1(Cc2ccccc2)N[C@H](CN(C)C(=O)C2CCCCC2)[C@@H]2C(=O)N(C)C(=O)[C@@H]21`, the “activity, negative = less viability” value was inactive: 4.33%.
With `Cn1c(=O)c2[nH]c(CCCCCCCCc3nc4ccccc4[nH]3)nc2n(C)c1=O` the Potency was inconclusive [cytotoxic, single point].
With `CC(SC1=NCCS1)C(=O)Nc1nnc(-c2ccc(Cl)cc2)s1` (centres undefined) the “activity, negative = less viability” value was inactive: 10.6%.
In the case of `CC1CCCCN1CCNC(=O)c1ccc2c(c1)N(Cc1cccc(Cl)c1)C(=O)c1ccccc1S2=O` (centres undefined), the Potency is reported as inconclusive [cytotoxic, single point].
With `Cc1ccc(C)c(CN2CCC(CNC(=O)Nc3ccc(Br)cc3F)CC2)c1` the Potency was active: 16.4 µM.
In the case of `CC(C)(C)n1ncc2c(=O)n(CC(=O)NCc3ccccc3)cnc21`, the Potency is reported as active: 16.4 µM.
For `CC1CCc2c(sc3nc(C4CC4)nc(N4CCN(C(=O)c5ccco5)CC4)c23)C1` (centres undefined), the Potency was inconclusive [cytotoxic, single point].
With `COc1ccc(NS(=O)(=O)c2cccc(C(=O)O)c2)cc1S(=O)(=O)N1CCCCC1` the “activity, negative = less viability” value was inactive: 2.36%.
With `COc1ccc(-c2csc3nc(-c4cccnc4)nc(N4CCC(C(N)=O)CC4)c23)cc1OC` the Potency was inconclusive [cytotoxic, single point].
With `NC1=NC[C@H](Cc2ccccc2)N1CCc1cccc(F)c1` the “activity, negative = less viability” value was inactive: 1.76%.
In the case of `O=C(CNCc1ccccc1)Nc1ccc(Cl)cc1`, the Potency is reported as active: 8.2 µM.
For `CC(=O)Nc1cc(S(=O)(=O)C(F)(F)F)ccc1Cl`, the activity, negative = less viability was inconclusive: 38.2%.
In the case of `O=[N+]([O-])c1ccc(NN=Cc2cc(Br)ccc2O)nc1`, the Potency is reported as active: 7.31 µM.
For `Cc1ccc2sc3ccc(NC(=O)c4ccccc4Cl)cc3c(=O)c2c1`, the Potency was inconclusive [cytotoxic, single point].
For `COc1ccc(C(=O)/C=C/c2cc(C(=O)O)cc3c2OCOC3)c(O)c1`, the Potency was inconclusive [cytotoxic, single point].
For `Cc1ccccc1Sc1ncnc2onc(C)c12`, the “activity, negative = less viability” value was inactive: -3.68%.
For `COc1ccc2[nH]c3c(=O)n(CCCCCC(=O)NCCC(C)C)c(=S)[nH]c3c2c1`, the “activity, negative = less viability” value was inactive: 1.15%.
In the case of `COc1ccc(OC)c(NC(=O)c2cc(-c3cc(C)cc(C)c3O)n[nH]2)c1`, the Potency is reported as inconclusive [cytotoxic, single point].
